{
  "source": "PubChem BioAssay AID1347165",
  "about": "(National Center for Advancing Translational Sciences (NCATS), 2019)",
  "note": "The whole screen tested about 220,000 compounds, of which about 5,700 (2.6%) were called active. The shares of active, inactive and inconclusive entries below differ from those in the screen. Calls come from the whole dose curve; as a rule, active = well fitted inhibition curve with a large enough effect; inconclusive = small, poorly fitted or top-dose-only effect; inactive = no such curve, though single readings can be large or run the other way. Where the call is inconclusive, the potency comes from a doubtful curve fit. Potency is the fitted concentration of half-maximal effect; tags give direction and shape of the fitted curve.",
  "data": [
    {"molecular_target": "Lysine-specific demethylase 5B (Homo sapiens) (UniProt Q9UGL1)", "sequence (Q9UGL1 whole entry, looked up)": "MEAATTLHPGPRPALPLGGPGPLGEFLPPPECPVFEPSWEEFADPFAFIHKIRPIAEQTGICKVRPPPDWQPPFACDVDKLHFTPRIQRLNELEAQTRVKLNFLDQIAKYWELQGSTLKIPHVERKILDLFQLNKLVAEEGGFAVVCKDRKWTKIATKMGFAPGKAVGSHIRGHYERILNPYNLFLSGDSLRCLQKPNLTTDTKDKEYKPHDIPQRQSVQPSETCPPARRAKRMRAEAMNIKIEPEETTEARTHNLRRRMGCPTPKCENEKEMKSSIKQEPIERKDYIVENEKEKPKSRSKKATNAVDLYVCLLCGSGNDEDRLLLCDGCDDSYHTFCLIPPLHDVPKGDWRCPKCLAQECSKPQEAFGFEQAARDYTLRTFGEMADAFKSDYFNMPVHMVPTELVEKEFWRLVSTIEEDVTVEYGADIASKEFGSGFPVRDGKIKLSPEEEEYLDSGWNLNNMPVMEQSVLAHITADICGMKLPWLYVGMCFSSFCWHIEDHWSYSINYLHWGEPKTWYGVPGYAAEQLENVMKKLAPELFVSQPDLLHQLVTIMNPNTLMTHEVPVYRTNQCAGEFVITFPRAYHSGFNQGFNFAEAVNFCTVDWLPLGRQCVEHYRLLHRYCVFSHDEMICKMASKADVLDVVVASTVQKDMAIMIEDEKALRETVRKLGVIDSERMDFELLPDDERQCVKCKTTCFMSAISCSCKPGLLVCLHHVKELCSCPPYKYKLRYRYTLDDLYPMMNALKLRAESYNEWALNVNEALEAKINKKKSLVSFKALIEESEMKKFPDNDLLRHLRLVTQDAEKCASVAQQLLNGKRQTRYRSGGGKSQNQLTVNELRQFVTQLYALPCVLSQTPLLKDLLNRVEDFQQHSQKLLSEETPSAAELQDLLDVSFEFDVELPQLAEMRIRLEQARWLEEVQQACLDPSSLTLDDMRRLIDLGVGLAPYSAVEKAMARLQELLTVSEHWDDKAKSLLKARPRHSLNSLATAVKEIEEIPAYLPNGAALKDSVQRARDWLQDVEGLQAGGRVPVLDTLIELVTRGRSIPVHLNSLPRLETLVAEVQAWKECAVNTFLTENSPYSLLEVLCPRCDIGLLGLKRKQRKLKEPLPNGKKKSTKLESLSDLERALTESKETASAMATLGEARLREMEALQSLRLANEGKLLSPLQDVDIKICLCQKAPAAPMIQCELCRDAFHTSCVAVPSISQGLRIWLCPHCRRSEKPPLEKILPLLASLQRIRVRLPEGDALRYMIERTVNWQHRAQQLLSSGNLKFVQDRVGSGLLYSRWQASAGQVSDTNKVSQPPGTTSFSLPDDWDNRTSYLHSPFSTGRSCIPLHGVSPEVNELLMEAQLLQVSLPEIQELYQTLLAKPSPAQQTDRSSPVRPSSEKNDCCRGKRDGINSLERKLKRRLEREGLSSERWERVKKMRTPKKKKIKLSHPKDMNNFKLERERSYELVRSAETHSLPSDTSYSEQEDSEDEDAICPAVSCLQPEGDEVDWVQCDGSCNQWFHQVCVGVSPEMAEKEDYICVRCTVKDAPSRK", "test": "Primary screen for KDM5B Histone Demethylases FDH-coupled qHTS; note: nearly all actives have a fitted effect of over 70% in size; for activity change, negative = inhibition: 0% is about no effect", "conditions": "FDH-coupled NADH fluorescence (FDH is formaldehyde dehydrogenase); activity change, negative = inhibition: at 57.7 µM (top of the series) unless noted", "summary_of_the_method": "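Measured: NADH fluorescence change, 30 min, RT. System: KDM5BΔAP 200 nM final, H3K4me3 peptide, α-KG, Fe(II), ascorbate, NAD⁺ plus FDH, pH 7.5 HEPES. Compounds: titrated, 10 min pre-incubation with enzyme.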", "values": [
      {"smiles": "CC1CCN(CCCNC(=O)c2cc3cc(F)ccc3[nH]2)CC1", "Potency": "inconclusive: 25.1 µM [inhibitor, partial curve, poor fit]"},
      {"smiles": "CCc1ncc(C(=O)N(C)C2CCN(Cc3ccccc3)C2)cn1", "note": "(stereo not drawn)", "Potency": "inconclusive: 28.2 µM [inhibitor, partial curve, poor fit]"},
      {"smiles": "O=C(C1CC1)N1CC[C@H](c2nc3ccccc3s2)C1", "Potency": "inactive"},
      {"smiles": "CC(=O)N1CCN(c2cc(-c3noc([C@@H]4CCCN4Cc4ccc(CO)o4)n3)ccn2)CC1", "Potency": "active: 28.2 µM"},
      {"smiles": "O=C(c1ccc(Cl)nc1)N1CCn2c(nn(-c3ccncc3)c2=O)C1", "Potency": "inactive"},
      {"smiles": "Cc1cc(Sc2ccc(NC(=O)c3cccc(Cl)c3)cc2)c2ccccc2n1", "Potency": "inconclusive: 31.6 µM [inhibitor, single point]"},
      {"smiles": "CN(C)CCNC(=O)C1Cn2cccc2C(=O)N1Cc1ccccc1", "note": "(stereo not drawn)", "Potency": "inconclusive: 3.98 µM [inhibitor, partial curve, poor fit]"},
      {"smiles": "O=C1CC(c2ccccc2)N(Cc2ccccn2)CCCCCN1", "note": "(stereo not drawn)", "Potency": "inactive"},
      {"smiles": "CCn1c(CN(c2ccc(C)cc2)S(C)(=O)=O)nnc1SCC(=O)c1ccccc1", "Potency": "inactive"},
      {"smiles": "O=C(NCc1cccc(Cl)c1)C1CCCN(c2ncnc3nc[nH]c23)C1", "note": "(stereo not drawn)", "Potency": "inactive"},
      {"smiles": "O=C(NC(c1ccccc1)C1CC1)C1CCCO1", "note": "(stereo not drawn)", "Potency": "inactive"},
      {"smiles": "C[S+](=O)([O-])CCn1ncc2cc(OCc3cccc(-c4cccnc4)c3)ccc21", "Potency": "inconclusive: 35.5 µM [inhibitor, single point]"},
      {"smiles": "Fc1ccc(/C=N/Nc2c(Cl)cc(Cl)cc2Cl)c(F)c1", "Potency": "inactive"},
      {"smiles": "Cc1ccc(C2c3[nH]c4ccccc4c3CCN2C(=O)CSc2ccccc2)cc1", "note": "(stereo not drawn)", "activity change, negative = inhibition": "inconclusive: -30.8% [inhibitor]"},
      {"smiles": "O=C(Nc1c(C(=O)N2CCN(c3ccccc3F)CC2)oc2ccccc12)c1ccc(Br)o1", "Potency": "inconclusive: 28.2 µM [inhibitor, partial curve, poor fit]"},
      {"smiles": "CC(C)c1ccc2oc(-c3ccc(N)cc3O)nc2c1", "Potency": "inconclusive: 25.1 µM [inhibitor, partial curve, poor fit]"},
      {"smiles": "COc1ccc(-c2ccc(=O)n(CC(=O)Nc3ccccc3C(F)(F)F)n2)cc1", "Potency": "inconclusive: 39.8 µM [inhibitor, single point]"},
      {"smiles": "COc1ccc(CNC(=O)c2ccc(-c3ccc(N4CCSCC4)nc3)cc2)cc1OC", "Potency": "inconclusive: 20 µM [inhibitor, partial curve, poor fit]"},
      {"smiles": "C=CCNC(=O)CSc1ncc2c(n1)-c1c(csc1SC)CC2", "Potency": "inconclusive: 25.1 µM [inhibitor, partial curve, poor fit]"},
      {"smiles": "C=CCNc1nc(-c2ccc(NC(C)=O)cc2F)cs1", "Potency": "inactive"},
      {"smiles": "Cc1cc(F)ccc1NC(=S)NCc1ccccc1", "Potency": "inactive"},
      {"smiles": "CN(Cc1cccnc1)C(=O)c1ccc(N2CC3CC(C2)[C@H]2CCCC(=O)N2C3)nc1", "note": "(stereo partly drawn)", "Potency": "inconclusive: 22.4 µM [inhibitor, partial curve, poor fit]"},
      {"smiles": "COc1cc(-c2cc(-c3ccccc3)nc3c(C)noc23)ccn1", "Potency": "inconclusive: 35.5 µM [inhibitor, single point]"},
      {"smiles": "CCc1ccc(CNC(=O)c2ccc(-n3c(C)cc4c3CCC(C)C4)cc2)cc1", "note": "(stereo not drawn)", "Potency": "inconclusive: 15.8 µM [inhibitor, partial curve, poor fit]"},
      {"smiles": "Cc1cccc(C)c1NS(=O)(=O)c1ccc(-c2cnc(C3CC3)o2)cc1", "Potency": "inconclusive: 31.6 µM [inhibitor, partial curve, poor fit]"},
      {"smiles": "CCOCCn1c(CN2CCN(Cc3ccccc3)CC2)nc2c1c(=O)[nH]c(=O)n2C", "Potency": "inactive"},
      {"smiles": "COc1cccc(C(c2sc3nc(-c4ccco4)nn3c2O)N2CCC3(CC2)OCCO3)c1", "note": "(stereo not drawn)", "Potency": "inconclusive: 15.8 µM [inhibitor, partial curve, poor fit]"},
      {"smiles": "COc1ccc(C2Sc3ccccc3NC3=C2C(=O)c2ccccc23)cc1", "note": "(stereo not drawn)", "Potency": "inconclusive: 11.2 µM [inhibitor, partial curve, poor fit]"},
      {"smiles": "N#CC(C(=O)C1c2ccccc2Oc2ccccc21)c1ccccn1", "note": "(stereo not drawn)", "Potency": "inconclusive: 22.4 µM [inhibitor, partial curve, poor fit]"},
      {"smiles": "Cc1ccc(CNC(=O)c2cc3n(n2)CC(c2ccc(Cl)cc2)OC3)cc1", "note": "(stereo not drawn)", "Potency": "inconclusive: 22.4 µM [inhibitor, partial curve]"},
      {"smiles": "COc1ccc(OC)c(NS(=O)(=O)c2ccc3c(c2)CCCN3C(=O)C2CCC2)c1", "Potency": "inactive"},
      {"smiles": "CC(C)C[C@@H]1N[C@H](C(=O)NCCN(C)C)Cc2c[nH]c3cccc1c23", "Potency": "inconclusive: 35.5 µM [inhibitor, single point]"},
      {"smiles": "COc1ccc(C(=O)N2CCC3(CC2)NCCc2c3[nH]c3ccc(OC)cc23)c(OC)c1", "Potency": "inconclusive: 14.1 µM [inhibitor, partial curve, poor fit]"},
      {"smiles": "c1ccc(-c2ccc3ncc(Nc4cnccn4)n3n2)cc1", "Potency": "inconclusive: 39.8 µM [inhibitor, partial curve, poor fit]"},
      {"smiles": "CN(C(=O)CC1C(=O)NCCN1Cc1cccc(F)c1F)C1CCOCC1", "note": "(stereo not drawn)", "Potency": "inconclusive: 28.2 µM [inhibitor, partial curve, poor fit]"},
      {"smiles": "O=C1CCCC2=C1C(c1ccccc1)CC(=O)N2c1ccc(F)cc1", "note": "(stereo not drawn)", "Potency": "inactive"},
      {"smiles": "COc1ccc(CCNC(=O)c2c(C)noc2-c2cc(OC)cc(OC)c2)cc1", "Potency": "inactive"},
      {"smiles": "COc1ccc(C(=O)N(C)Cc2cc(Br)ccc2OC)cc1F", "Potency": "inactive"},
      {"smiles": "CSc1nnc(-c2ccccc2NC(=O)c2cccc(S(=O)(=O)N3CCCCCC3)c2)o1", "Potency": "inactive"},
      {"smiles": "CCOc1ncccc1C(=O)N1CCN(Cc2ccccc2)CC(O)C1", "note": "(stereo not drawn)", "Potency": "inconclusive: 15.8 µM [inhibitor, partial curve]"},
      {"smiles": "Cc1c(CCC(=O)N2CCCC2)c(=O)oc2c(C)c(O)ccc12", "Potency": "inconclusive: 12.6 µM [inhibitor, partial curve, poor fit]"},
      {"smiles": "Oc1ccc(/C=C/c2cc(-c3ccccc3)cc(-c3ccccc3)[o+]2)cc1", "Potency": "inconclusive: 39.8 µM [inhibitor, single point]"},
      {"smiles": "N#Cc1c(-c2ccc(F)cc2)c2c([nH]c1=O)-c1ccccc1OC2", "Potency": "inconclusive: 28.2 µM [inhibitor, partial curve, poor fit]"}
    ]}
  ]
}
